# From the supplement of paper PMC10185492
# The other results are listed elsewhere or left out. Values come from read counts of a selection and are noisy.
# Test system: SARS-CoV-2 3CLpro (nsp5)
# Assay: substrate phage enrichment score (protease-eluted vs HEPES control, +1 offset) (ratio); higher = better cleaved substrate
# Details: selection round: 3; protease elution time: 0.5 h
# Description: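 Random heptapeptide substrate phage display (M13 pIII fusion, heptapeptide between an N-terminal biotinylated AviTag GLNDIFEAQKIEWHE and pIII; phages immobilised on streptavidin) eluted by cleavage with 50 nM protease in 20 mM HEPES at 37 °C. Selected phages were NGS sequenced, and the enrichment score is (reads in protease sample + 1)/(reads in HEPES blank-selection control + 1).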
row,Substance,substrate phage enrichment score
1,QSLDRSR,> 23
2,GWSAEHR,1.2
3,RHFQGGS,1
4,RRQASQP,3.17
5,SAAAHHN,1.07
6,NEAAHHH,0.764
7,KTPSSLM,14.5
8,SAAAPHQ,0.5
9,HSQTPSE,1.78
10,RNVSNLQ,10.5
11,ALNPLLM,> 24
12,RFRQEER,7.67
13,NRNQLSS,7.33
14,ATQKTRG,> 32
15,RAAAHHQ,0.635
16,ACRCEIQ,> 32
17,AESNSVP,2.88
18,RLNFKGY,0.0444
19,YAAAHHH,1
20,TSEALTR,> 23
21,DRQRAMK,2.9
22,TFPRQVP,2.88
23,GPSLKYR,1.83

row,Substance,substrate phage enrichment score
1,SAEDCME,6.17
2,RDRANHA,1.38
3,IQHECQQ,> 27
4,KRSCILQ,> 31
5,CRCCQLG,> 25
6,CGHLLKD,> 43
7,RSATTNQ,1.44
8,SLNSPKP,2.67
9,CAHSYLQ,> 28
10,GHQAVLQ,> 21
11,AKLQCCT,> 62
12,SHMPTQS,0.024
13,GTLNTAP,2.67
14,TARETGM,5.05
15,FQSRCTE,12
16,QHCHTVK,> 25
17,DNAAAHH,1.42
18,PQAAHHH,0.65
19,KCWSRNG,> 22
20,LMALPKA,3.8
21,GALYKPA,2
22,LGLPNLQ,> 39
23,TYFQGGS,1.7

row,Substance,substrate phage enrichment score
1,SQIGDET,2.25
2,CVYRTNG,1.4
3,RAAAQHQ,1.31
4,SRDNSIP,13
5,TTRDPAR,> 33
6,LMQSPSR,> 25
7,QHGSIGR,3
8,VLIQCGP,2.73
9,RQRSCLQ,> 26
10,SENAVAQ,5.5
11,SDQVNGQ,10
12,EAAHHHH,0.723
13,ATRLQAV,56.5
14,DVNVSEQ,> 29
15,WRRTPAA,10
16,TSSRNPR,1.56
17,VHRNPLS,2.83
18,DRAAAHH,0.714
19,GEAAHHH,0.76
20,DPQRNSR,2
21,QQCPLDA,14
22,PGAELGR,2.67
23,SWCTVPA,> 29

row,Substance,substrate phage enrichment score
1,SSAHHHH,0.364
2,ARVKLRN,15
3,ALLQANK,> 67
4,DSAAAHH,0.66
5,GSMPQVP,> 24
6,DACRHIG,0.114
7,STSAPKR,2
8,TSGYLSE,28
9,TKWSHQQ,0.2
10,CVAAHHH,0.852
11,LSPNDVK,> 31
12,HTQRKHF,> 32
13,SAATADY,> 24
14,RDEKHTP,0.278
15,TQKSQWS,9.33
16,PHSKIQS,> 23
17,EKSGPGS,2.33
18,SWRSVPG,> 38
19,THWVNKD,> 25
20,ACEQMWA,> 22
21,PRCWIRP,8.33
22,QHEAALC,4.86
23,FENGQVK,13.5

row,Substance,substrate phage enrichment score
1,SGKVGQL,> 43
2,KSTQPSK,0.947
3,RELHAGP,> 30
4,RSWNTLS,2.67
5,PAGLMWQ,> 22
6,LPCTEAS,1.15
7,SSRPTSA,0.353
8,ASPLNNN,12
9,TTSDRIL,1.88
10,DPRDGHL,1.56
11,RDWNPAM,1.27
12,PSQGLRP,> 32
13,IDRPIHC,0.2
14,NGGLNPG,4.44
15,IERPSSR,> 24
16,PIDESSG,3.8
17,QPVTNLQ,16
18,SLPSAHR,> 43
19,PQVRCQE,0.971
20,TRAEAPH,2.43
21,RPVLQSH,> 29
22,YHHHGAA,0.294
23,DASSAAT,0.588

row,Substance,substrate phage enrichment score
1,LSTIECQ,> 22
2,EIDTCLQ,> 25
3,SGDPVSR,> 47
4,PGDWGRP,0.1
5,RACTLHS,> 58
6,RPPELME,1.04
7,RMVVQLQ,> 57
8,TPIEGRD,1.7
9,EDPARPS,6.33
10,TGHVILH,> 82
11,CQLNPIE,> 21
12,GAAAHQH,0.778
13,LIFRVVV,2.1
14,CQHNVGS,0.857
15,CYESEMR,> 33
16,KSNEDLV,> 23
17,FQSHEPN,> 33
18,VYTGPRD,> 23
19,NNAPVNI,7
20,VPAAHHH,0.88
21,SPYFQGG,4.56
22,LKSKRTP,7
23,NTGPVLR,> 40

row,Substance,substrate phage enrichment score
1,WQSPRKD,13.5
2,FASGVKN,> 29
3,LTAAHHH,1.55
4,ARPDRHR,> 24
5,TRAAHHH,0.39
6,FNSSLQS,> 22
7,KDGSSTV,3
8,TSLNQLC,10
9,VGAAAHH,1.07
10,SQKTYTR,6.67
11,GVLESVA,1
12,TTQDNER,12
13,YSAQRGK,1.88
14,FGLCELQ,> 152
15,RETAHHH,0.478
16,HCNAQTA,4.71
17,VRQDAHR,0.6
18,HNTTSAG,4.83
19,TSAAAHH,0.68
20,DVVQTLQ,> 28
21,HRAAHHH,0.652
22,APAAHHH,1
23,HCTNETG,5.2

row,Substance,substrate phage enrichment score
1,SQLRCHE,> 23
2,TTIQHPM,2.07
3,KSHEVRQ,> 22
4,GSIHRRP,12.5
5,LAAHHHH,0.865
6,SEPMCDR,> 31
7,ITLQALG,11.5
8,ALRHRNG,1.75
9,QGGSAAA,0.696
10,TARKWAQ,6
11,RRGECRM,15
12,LNNLLSQ,> 29
13,CDLSASR,4.75
14,LCGPSRS,> 27
15,WDNLNKR,1.27
16,DIILKTG,> 35
17,RPAAICQ,5.45
18,KPAVCPT,0.833
19,GRSSGPL,1.62
20,VSGQADR,> 34
21,NTRSCPH,> 26
22,RKHLCPP,1
23,STSPFKG,0.471
